Assay results published in PubChem BioAssay AID651820 (National Center for Advancing Translational Sciences (NCATS), 2012).
The campaign covered roughly 340,000 compounds. About 12,000 (3.5%) were called active. The shares of active, inactive and inconclusive entries below differ from those in the screen. Calls come from the whole dose curve; as a rule, active = well fitted inhibition curve with a large enough effect; inconclusive = small, poorly fitted or top-dose-only effect, or another doubt; inactive = no such curve, though single readings can be large or run the other way. No potency is given beside an inconclusive call; the fits are too rough. The source holds several records for some structures; these can differ, active in one and inactive in another.

Assay: qHTS Assay for Inhibitors of Hepatitis C Virus (HCV)
Conditions: Huh7.5.1 HCVcc-Cre (HCVcc is cell-culture hepatitis C virus) infection, luciferase reporter, 44 h; series mostly up to 41.8 µM
Method in brief: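 A cell-based infection assay in which seeded cells (1,000 per well) receive test compound after 4 h, are inoculated with HCVcc-Cre at approximately 0.5 moi, and are incubated 44 h before luminescence detection.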
Potency is the fitted concentration of half-maximal effect; tags give direction and shape of the fitted curve.

| SMILES | Potency |
| --- | --- |
| CCCCn1c(=O)c2ccccc2n2c(=S)[nH]nc12 | inconclusive [inhibitor, single point] |
| CC(O)CNc1nc(N)[nH]c(=O)c1N=Nc1ccccc1 (configuration not stated) | inactive |
| COc1ccc(CC2(CO)COc3ccccc3C2=O)cc1 (configuration not stated) | inconclusive [inhibitor, single point] |
| CCOC(=O)c1sc(=NC(=O)c2cccc(OC)c2)n(C)c1C | inactive |
| O=[N+]([O-])NC1=NCCN1Cc1ccc(Cl)nc1 | inconclusive [inhibitor, partial curve] |
| CCCCN1C(=N)N([C@@H](CCC)CN2CCC[C@H]2CN2C(N)=NC[C@@H]2Cc2ccccc2)C[C@H]1[C@H](C)CC | inconclusive [inhibitor, single point] |
| CN(C)CCNC(=O)c1ccc2c(=O)n(Cc3ccc(Cl)cc3)c(=S)[nH]c2c1 | inconclusive [inhibitor, partial curve] |
| CC1=NN(C(N)=S)C(=O)C1N=Nc1ccccc1C(=O)O (configuration not stated) | inactive |
| CC(C)[C@H](Nc1ccc(S(=O)(=O)N2CCOCC2)cc1[N+](=O)[O-])C(=O)OCC(N)=O | inactive |
| COc1ccccc1NC(=S)N1CCN(c2ccc(F)cc2)CC1 | inconclusive [inhibitor, single point] |
| COC(=O)c1cc(C)nc(Sc2ccccc2N)n1 | inconclusive [inhibitor, partial curve] |
| O=C(Nc1nnc(S(=O)(=O)N2CCCCC2)s1)c1cccc(Br)c1 | inconclusive [inhibitor, single point] |
| Nc1nc(Nc2ccc(Cl)cc2)nc2ccccc12 | inactive |
| Fc1ccc(-c2cn3cc(C(F)(F)F)cc(Cl)c3n2)cc1 | inconclusive [inhibitor, partial curve] |
| O=[N+]([O-])c1cccc(CN(CCO)Cc2ccccc2)c1 | inactive |
| O=[N+]([O-])c1cc2c(cc1[N+](=O)[O-])OCCOCCOCCOCCO2 | active: 6.31 µM |
| Cc1cccc(Cn2c(SCC(=O)Nc3ccccc3)nc3c2c(=O)[nH]c(=O)n3C)c1 | active: 25.1 µM |
| Cc1oc(-c2ccccc2Cl)nc1CSCC(=O)NC1CC1 | inconclusive [inhibitor, partial curve] |
| CCc1cccc(CC)c1NC(=S)NCC(c1cccnc1)N1CCOCC1 (configuration not stated) | inconclusive [inhibitor, partial curve] |
| CCN(CC)CCN(C(=O)Cn1nnc(-c2ccc(OC)c(OC)c2)n1)C(C(=O)NC1CCCC1)c1ccc(F)cc1 (configuration not stated) | inconclusive [inhibitor, single point] |
| N#C/C(=C\c1ccc(N2CCOCC2)c([N+](=O)[O-])c1)c1nc2ccccc2[nH]1 | inconclusive [inhibitor, single point] |
| Cc1nc(-c2ccccc2)sc1C(N)=O | inconclusive [inhibitor, partial curve] |
| CCC(C)NC(=O)c1ccc(COc2ccccc2Cl)cc1 (configuration not stated) | inconclusive [inhibitor, partial curve] |
| CC1CCCC(C)N1CCCNC(=O)c1nn(C)c2c1CSc1ccccc1-2 (configuration not stated) | inconclusive [inhibitor, single point] |

| SMILES | Potency |
| --- | --- |
| Cc1ccc(NC(=O)c2cccc3ccccc23)cc1 | inconclusive [inhibitor, single point] |
| CCOc1ccc(C(=O)CCC(=O)Nc2cccc(S(=O)(=O)N3CCCCC3)c2)cc1 | inconclusive [inhibitor, single point] |
| O=C(Nc1cccc(-c2cccc(F)c2)c1)C1CCN(Cc2ccc(CO)o2)CC1 | inconclusive [inhibitor, single point] |
| C/C(=N/NC(=O)c1cnccn1)c1ccncc1 | inactive |
| O=C(NCCCN1CCOCC1)c1cc(-c2ccccc2)nc2ccccc12 | inactive |
| COCCNC(=O)c1ccccc1NC(=O)C1COc2ccccc2O1 (configuration not stated) | inactive |
| COc1cccc(/C=C2\Sc3ccc(C(=O)NCC4CCCO4)cc3N(C)C2=O)c1 (configuration not stated) | inconclusive [inhibitor, single point] |
| O=C(N/N=C/c1ccncc1)c1cc(Br)ccc1OCc1ccccc1 | active: 8.91 µM |
| CC(=O)Nc1ccc(S(=O)(=O)N2CCN(CC(=O)N3CCOCC3)CC2)cc1 | inactive |
| COc1ccc(-c2noc(CCC(=O)N3CCN(c4ccc(F)cc4)CC3)n2)cc1 | inconclusive [inhibitor, single point] |
| COC(=O)c1ccc([N+](=O)[O-])cc1N1C(=O)C2C3CCC(C3)C2C1=O (configuration not stated) | inactive |
| Cc1ccc(NC(=O)COc2ccc(/C(N)=N/O)cc2)cc1C | inactive |
| O=C(Cc1ccc(Cl)cc1)Nc1cc(Cl)ccn1 | inconclusive [inhibitor, single point] |
| CC(C)(C)n1nnnc1C(c1cccs1)N(Cc1ccc(Cl)cc1)CC1CCCO1 (configuration not stated) | inconclusive [inhibitor, single point] |
| Cc1cccc(CSc2nc3nc(C)cc(C)n3n2)c1 | inactive |
| CCC(C)NC(=S)Nc1ccc(F)cc1 (configuration not stated) | inactive |
| CC(C)c1cccc(C(C)C)c1NC(=O)COc1nncc2ccccc12 | inconclusive [inhibitor, single point] |
| C/C(=N\Nc1nc(-c2ccccn2)nc2ccccc12)c1ccc(F)cc1 | active: 4.47 µM |
| O=C(NCCc1ccccc1)C1CCN(Cc2cccc3ccccc23)CC1 | inactive |
| Cc1ccc(Nc2nc(CSc3nnnn3-c3ccccc3)cs2)cc1 | inconclusive [inhibitor, single point] |
| COc1oc(C(=O)NC2CCCCC2)c(-c2ccc(Cl)cc2)c1S(=O)(=O)c1ccccc1 | inconclusive [inhibitor, single point] |
| Cc1ccc(NC(=O)C(=O)NCC2CCCN2S(=O)(=O)c2cccs2)cc1C (configuration not stated) | inconclusive [inhibitor, single point] |
| CC(=O)c1ccc(OCC(C)Oc2ccc(C#N)cc2)cc1 (configuration not stated) | inconclusive [inhibitor, single point] |
| COc1ccc(/C=C(/C(=O)NCc2ccccc2)c2ccccc2)cc1 | inconclusive [inhibitor, partial curve] |

| SMILES | Potency |
| --- | --- |
| C/C(=N\OC(=O)NC1CCCCC1)c1sc(-c2ccccc2)nc1C | inconclusive [inhibitor, single point] |
| COc1ccc(NC(=O)C2CCCCN2S(=O)(=O)c2ccc(F)cc2)cc1 (configuration not stated) | inconclusive [inhibitor, single point] |
| COc1ccc(-c2c[n+](CC(=O)N3c4ccccc4Sc4ccccc43)c3n2CCC3)cc1 | inactive |
| O=C(COc1ccc(S(=O)(=O)N2CCOCC2)cc1Cl)NC1CCCCC1 | inactive |
| CCN(CC)CCOc1ccc(/C(=C(/Cl)c2ccccc2)c2ccccc2)cc1 | active: 7.94 µM |
| Cc1ccc(NC(=O)c2cc(NC(=O)c3ccco3)ccc2N2CCOCC2)cc1 | active: 12.6 µM |
| COc1ccc(C(=O)N2CCN(Cc3ccccc3)CC2)cc1[N+](=O)[O-] | inconclusive [inhibitor, single point] |
| Cc1cccc(Oc2cc(NC(=O)Cn3cnc([N+](=O)[O-])n3)cc([N+](=O)[O-])c2)c1 | inconclusive [inhibitor, partial curve] |
| CCCCCn1c(CN(C)Cc2ccccc2)nc2c1c(=O)n(C)c(=O)n2C | active: 14.1 µM |
| Cc1ccc(NC(=S)NC(=O)c2ccc(F)cc2)cc1S(=O)(=O)Nc1cccc(Cl)c1 | inconclusive [inhibitor, single point] |
| COc1ccc2[nH]c(=O)c(CN(CCN3CCCC3)C(=O)Nc3ccccc3Cl)cc2c1 | inactive |
| CC(NC(=O)Nc1nnc(C(F)(F)F)s1)(C(F)(F)F)C(F)(F)F | active: 2.82 µM |
| Cc1ccc(N=N/C(=C\O)C(=O)c2ccncc2)cc1 | inconclusive [inhibitor, partial curve, poor fit] |
| COc1ccc(Nc2nc(NCc3ccco3)nc(N/N=C/c3ccccc3Cl)n2)cc1 | inconclusive [inhibitor, partial curve] |
| CCOC(=O)C1(CCOc2ccccc2)CCN(Cc2cnc(SC)nc2)CC1 | inconclusive [inhibitor, partial curve, poor fit] |
| Cc1cc(Br)c2[nH]c3c(c2c1)CCCC3=O | active: 10 µM |
| COc1ccc(C=C(c2ccc(OC)cc2)c2ccc(OC)cc2)cc1 | inconclusive [inhibitor, single point] |
| Cc1cc(C)c(S(=O)(=O)c2c(C)cccc2C)c(OCC(C)C)n1 | inconclusive [inhibitor, full curve, poor fit] |
| Cc1cccc(OCc2nnc(SCC(=O)N3c4ccccc4Sc4ccc(Cl)cc43)o2)c1 | inconclusive [inhibitor, partial curve] |
| CC(C)CC(=O)N1CCN(S(=O)(=O)c2ccc(C3CCCCC3)cc2)CC1 | active: 11.2 µM |
| Cc1c(NC(=S)NC(C)(C)C)c(=O)n(-c2ccccc2)n1C | inactive |
| Cc1ccc2nc(-c3ccccc3)cc(C(=O)N3CCc4ccccc4C3)c2c1 | inconclusive [inhibitor, partial curve] |
| COc1ccccc1NC(=O)Nc1nc(CC(=O)NC2CCCC2)cs1 | inconclusive [inhibitor, partial curve] |
| C[n+]1cccc(C(=O)O)c1 | inconclusive [inhibitor, full curve, poor fit] |
